The record followed here is publication PMC4336329 (PLoS ONE, 2015).

In all, about 310,000 compounds went through this assay and about 14,000 (4.5%) showed an effect of 50% or more. Effects have a minus sign here. The list shows a part of the results.
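Note: peak tail current of the secondary pulse compared with the same well before compound.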

The target of this test is human ether-à-go-go-related gene (hERG) potassium channel (human, UniProt Q12809). Put plainly: primary screen, population patch clamp on CHO cells stably expressing hERG.
Chain of human ether-à-go-go-related gene (hERG) potassium channel (Q12809 whole entry, looked up): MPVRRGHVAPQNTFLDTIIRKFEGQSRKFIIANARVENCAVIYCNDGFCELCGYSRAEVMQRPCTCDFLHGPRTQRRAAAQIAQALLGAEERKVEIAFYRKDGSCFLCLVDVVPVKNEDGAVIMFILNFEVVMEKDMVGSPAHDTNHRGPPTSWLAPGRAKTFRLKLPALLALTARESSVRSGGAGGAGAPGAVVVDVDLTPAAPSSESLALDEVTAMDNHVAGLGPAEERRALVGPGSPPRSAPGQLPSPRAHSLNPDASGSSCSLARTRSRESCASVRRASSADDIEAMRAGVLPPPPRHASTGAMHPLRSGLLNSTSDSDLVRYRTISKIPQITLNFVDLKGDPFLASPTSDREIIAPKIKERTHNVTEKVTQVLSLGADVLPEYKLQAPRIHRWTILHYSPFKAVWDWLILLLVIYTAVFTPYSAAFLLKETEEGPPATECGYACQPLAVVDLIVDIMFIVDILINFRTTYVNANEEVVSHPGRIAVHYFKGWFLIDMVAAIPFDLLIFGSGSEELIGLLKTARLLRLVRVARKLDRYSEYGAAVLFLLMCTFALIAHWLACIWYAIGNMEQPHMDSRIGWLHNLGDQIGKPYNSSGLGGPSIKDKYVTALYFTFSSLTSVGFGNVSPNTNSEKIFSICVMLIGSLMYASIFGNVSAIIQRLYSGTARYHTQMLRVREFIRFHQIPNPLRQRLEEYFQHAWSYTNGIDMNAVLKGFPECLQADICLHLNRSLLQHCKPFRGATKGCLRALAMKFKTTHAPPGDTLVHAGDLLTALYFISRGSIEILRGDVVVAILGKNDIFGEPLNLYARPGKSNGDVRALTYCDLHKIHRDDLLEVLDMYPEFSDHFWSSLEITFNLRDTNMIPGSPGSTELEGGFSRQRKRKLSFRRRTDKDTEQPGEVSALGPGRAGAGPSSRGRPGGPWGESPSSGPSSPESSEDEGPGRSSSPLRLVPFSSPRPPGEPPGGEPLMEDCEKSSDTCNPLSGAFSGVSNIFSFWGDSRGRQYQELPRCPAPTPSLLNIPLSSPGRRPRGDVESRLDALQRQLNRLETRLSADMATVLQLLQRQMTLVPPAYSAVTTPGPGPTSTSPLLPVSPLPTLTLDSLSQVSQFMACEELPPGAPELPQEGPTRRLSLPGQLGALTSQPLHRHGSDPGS
As to `COc1ccc(OCCCC(=O)OC(C)C(=O)Nc2ccccc2[N+](=O)[O-])cc1` (centres unmarked), the “hERG current change (%, negative = inhibition) at 10uM” value was -0.636%.
The same measure for `COc1ccccc1N1CCN(C(=O)C(C)N(c2ccccc2)S(C)(=O)=O)CC1` (centres unmarked): 5.64%; for `CC(=O)Oc1cccc(N2C(=O)c3ccc(C(=O)O)cc3C2=O)c1`: -2.25%; for `Cc1cc(C(=O)Nc2nnc(C(F)(F)F)s2)no1`: 21.5%.
For `COc1ccc(/C=C2/C(=O)OCc3cc(OC)c(OC)cc32)c(OC)c1` the value was -27.8%; for `CS(=O)(=O)NCCNc1cc(Cl)ccc1[N+](=O)[O-]`, 2.09%; for `Cn1c(=O)oc2cc(S(=O)(=O)NCC3CCCO3)ccc21` (centres unmarked), -1.26%.
The same measure for `Cc1ccc([N+](=O)[O-])cc1S(=O)(=O)Nc1ccccn1`: 9.5%; for `O=C(NCc1ccco1)C1CN(S(=O)(=O)c2ccccc2)CCN1S(=O)(=O)c1ccccc1` (centres unmarked): -37.3%.
With `CCOC(=O)c1cc2c(ccc3nc(C)c(C)c32)[nH]c1C`, the “hERG current change (%, negative = inhibition) at 10uM” value is on record as -23.3%.
The same measure for `COc1ccccc1CNC(=S)NCc1ccc(F)cc1`: 2.76%; for `COC(=O)c1ccc(N2CCN(C)CC2)c([N+](=O)[O-])c1`: -63.4%; for `Cn1c(=O)c2c(-c3ccc(OC(F)F)cc3)cc(-c3ccccc3)nc2n(C)c1=O`: 2.37%.
The same measure for `Cc1ccc(-n2c(N)c(C#N)c(-c3ccc(Cl)cc3)c(C#N)c2=O)cc1`: 17.1%; for `CN(C)/C=N/c1ncn(-c2ncc(C(F)(F)F)cc2Cl)n1`: 17.5%; for `COc1ccc(C(=O)c2cc3cccc(OC)c3o2)cc1`: -13.7%.
For `COc1ccc(C(=O)N/N=C/C(Br)=C/c2ccccc2)cc1` the value was 5.88%; for `CCOC(=O)c1ccc2c(c1)nc(SC(C)C(=O)NCC1CCCO1)n2CC` (centres unmarked), -18.9%; for `C[C@@H]1O[C@@H](O[C@@H]2C=C3CC[C@@H]4C(CC[C@]5(C)[C@@H](c6ccc(=O)oc6)CC[C@]45O)[C@@]3(C)CC2)[C@H](O)[C@H](O)[C@H]1O` (some centres unmarked), 13.9%.
Turning to `COc1ccc2nc(N3C(=O)CC(Cc4cc(C)cc(C)c4)C3=O)sc2c1` (centres unmarked), the “hERG current change (%, negative = inhibition) at 10uM” value is recorded as 9.23%.
For `Cn1c(=O)c2c(nc(N/N=C/c3cccnc3)n2Cc2ccccc2)n(C)c1=O` the value was -51.2%; for `Cc1nn(CC(=O)c2ccc(Cl)cc2Cl)c(C)[n+]1N.[Br-]`, 11.4%; for `COc1cc(C(=O)OC2CC3CCC2(C)C3(C)C)ccc1OC(C)=O` (centres unmarked), 10.8%.
For `COc1ccc(N2CC(O)=C(c3nc(C)cs3)C2=N)cc1` the value was 3.07%.
For `O=C(NCCOc1cccnc1)c1ccc(OC2CCN(Cc3ccccn3)CC2)cc1` the value was 9.86%; for `Cc1ccc(/C=N/N2CCN(Cc3ccccc3)CC2)o1.Cl`, 10.8%; for `O=c1onc(-c2ccccc2)n1-c1cc(Cl)cc(Cl)c1`, -2.13%.
Turning to `CC(=O)NC(CC(=O)Nc1nc(-c2ccc(N(C)S(C)(=O)=O)cc2)cs1)c1ccccc1` (centres unmarked), the “hERG current change (%, negative = inhibition) at 10uM” value is on record as 24.5%.
The same measure for `CC1=CN2C(=N)/C(=C/c3ccc([N+](=O)[O-])o3)C(=O)N=C2S1`: 17%; for `CCCOc1ccc(Cc2c(O)nc(N)[nH]c2=O)cc1C`: 15.9%.
For `O=C(N/N=C/c1c(O)n(CCc2ccc(F)cc2)c(=O)[nH]c1=O)c1ccncc1` the value was 2.13%; for `Cc1ccc(C(=O)C(OC(=O)CNC(=O)c2ccc(Cl)cc2)c2ccccc2)cc1` (centres unmarked), 2.15%; for `COc1ccc(/C=N/NC(=O)CC#N)cc1Oc1nc(Cl)ncc1F`, 9.22%.
For `C/C(Cn1nnc([N+](=O)[O-])n1)=N\NC(=O)c1ccccc1O` the value was 10.7%; for `CCC(C)[C@H](NC(=O)NCc1ccc(F)cc1)C(=O)O` (some centres unmarked), 9.31%.
Regarding `O=C1CC(N2CCN(C/C=C/c3ccccc3)CC2)C(=O)N1CCc1ccccc1` (centres unmarked), the “hERG current change (%, negative = inhibition) at 10uM” value is on record as -58.1%.
The same measure for `CN(CC(=O)Nc1ccc(Cl)c(S(=O)(=O)N2CCOCC2)c1)C(=O)c1cccs1`: -44.2%.
The same measure for `CCOC(=O)CN1C(=O)N[C@@H](c2ccccc2)[C@H](C(C)=O)[C@H]1C`: 11.2%; for `Cc1cc(=O)oc(C)c1C(=O)N[C@@H](Cc1ccccc1)C(=O)O`: 16.9%; for `CCOC(=O)N1CCN(C(=O)c2cc(COc3ccc4ncccc4c3)on2)CC1`: -5.07%.
The same measure for `Cc1ccc(OCC(=O)Nc2ccc(O)c(C(=O)O)c2)cc1C`: 2.85%; for `Cc1cc(NC(=O)COC(=O)c2cccc(O)c2)no1`: 11.5%; for `CCOC(=O)C(NCc1ccc(OC)cc1)(NC(C)=O)C(F)(F)F` (centres unmarked): -4.47%.
With `Cc1c(Cl)c(=O)oc2cc(OC(C)C)ccc12`, the “hERG current change (%, negative = inhibition) at 10uM” value was -4.39%.
The same measure for `COc1ccc(C(=O)NCCc2nnc(SCc3nc4ccccc4c(=O)[nH]3)n2C)cc1`: -1.24%; for `CN(CC(=O)Nc1ccccc1Br)C(=O)CNC(=O)C1CCCCC1`: 14.6%.
For `Cc1onc(-c2c(F)cccc2Cl)c1C(=O)Nc1sc2c(c1C#N)CCC(C(C)(C)C)C2` (centres unmarked) the value was 23.4%; for `Cc1c(Cl)cccc1NC(=O)CCC(=O)NNC(=O)CCC(=O)O`, 20.4%; for `CCOC(=O)C1CCN(C(=O)COC(=O)c2cc(-c3cccs3)nn2-c2ccccc2)CC1`, -49.3%.
For the molecule `CC(C)c1cc(C(=O)O)c2ccccc2n1`, the “hERG current change (%, negative = inhibition) at 10uM” value was -8.14%.
